Results from the supplement of paper PMC4723716.
In all, about 3,600 compounds were measured (“viability index relative to DMSO control”: median about 0.81, lowest 2% from about 0.13 on). The list shows a part of the results.

System: Plasmodium falciparum NF54 stage V gametocytes
Experiment: viability index relative to DMSO control (fraction); higher = less gametocyte killing
Conditions: 1.25 µM, incubation time: 72 h
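Also: 384-well serum-free SaLSSA: MitoTracker Red CMXRos staining with saponin lysis, high-content imaging, treated-well particle count divided by plate-mean count of DMSO wells.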

Compound	viability index
Cc1ccc(C)c(N2CCN(CCCNC(=O)c3ccc(CSc4nc5cnccc5[nH]4)cc3)CC2)c1	0.96
CC(C)Cc1ccc(-c2csc(NC(=O)C3C4CCC(C4)C3C(=O)O)n2)cc1 (stereo not given)	1.21
NC(=NOC(=O)c1ccccc1I)c1ccccn1	1.3
Cc1cc(C)n(-c2cc(NN=Cc3cc(Br)ccc3O)nc(C)n2)n1	0.656
O=C(Nc1ccc(N2CCCCC2)cc1)N1CCc2nc[nH]c2C1c1ccc(Cl)cc1 (stereo not given)	0.69
COC(=O)C1=C(C)NC2=C(C(=O)CC(C)(C)C2)C1c1ccc(C)o1 (stereo not given)	0.502
O=C(Cn1cc([N+](=O)[O-])nc1[N+](=O)[O-])N1CCN(c2ccc(F)cc2)CC1	0.411
Cc1ccc(NC(=O)CSc2nc3cc(C(=O)NCCCOC(C)C)ccc3c(=O)n2Cc2ccco2)cc1Cl	0.771
CC(=O)Nc1ccc(NC2=CC(=NS(=O)(=O)c3ccccc3)c3ccccc3C2=O)cc1	0.398
COc1ccc(C(NC(=O)c2cccc(OC)c2)c2cc(Cl)c3cccnc3c2O)cc1 (stereo not given)	0.804
CCN(CC)C(=O)c1ccc2c(=O)n(Cc3cccc(Br)c3)c(=S)[nH]c2c1	1.02
Cc1nc2sccn2c1-c1csc(Nc2ccccn2)n1	0.89
CCOc1cccc2oc(=O)c(C(=O)Nc3cc(C(C)(C)C)on3)cc12	0.664
COc1cccc(C(=O)NCc2n[nH]c(=S)n2-c2ccc(Cl)c(Cl)c2)c1	0.453
O=C(C1CC1)N1CCc2cc(Br)cc(S(=O)(=O)N3CCCCCC3)c21	0.803
CCOC(=O)c1c[nH]c2ccc(OC)cc2c1=O	0.467
CCC(Oc1ccc(C(C)(C)CC)cc1C(C)(C)CC)C(=O)Nc1ccc([N+](=O)[O-])cc1O (stereo not given)	0.626
O=[N+]([O-])c1ccc(-c2csc(CO)n2)cc1	1.4
CNc1nc(Cl)nc(Nc2ccccc2)n1	0.803
CCOC(=O)C1(CC)CC(C)(C(=O)C[n+]2cccc(Br)c2)OC1=O (stereo not given)	1.11
CCCN1CCN(C(=O)C(=O)Nc2ccc3nc4n(c(=O)c3c2)CCCCC4)CC1	0.548
O=C1CC(N2CCCCCC2)C(=O)N1c1ccc(N2C(=O)CC(N3CCCCCC3)C2=O)cc1 (stereo not given)	0.94
O=C(C1CCC1)N1CCOc2c(cc(-c3csc4ccccc34)cc2OCCc2ccccn2)C1	0.413

Compound	viability index
CCCc1ccc(OCc2nc(-c3ccc(NC(=O)c4cccs4)cc3)no2)cc1	1.02
CCOCc1nnc(NC(=O)COc2ccc(Cl)cc2Cl)s1	0.808
O=C(C(Cc1c[nH]c2ccccc12)NS(=O)(=O)c1ccc(Cl)cc1)N1CCCCC1 (stereo not given)	0.732
C=CCc1cc(C=c2sc3n(c2=O)C(c2ccccc2)C(C(=O)OCC)=C(C)N=3)cc(OC)c1O (stereo not given)	0.77
CCCN(CCC)C1=CC(=O)C(C(C)(C)C)=CC1=O	0.656
CCN(CC)CCCN(Cc1cc2cc(OC)ccc2[nH]c1=O)C(=S)Nc1cccc(Cl)c1	0.824
COC(=O)CS(=O)c1ccccc1 (stereo not given)	1.44
Brc1ccc(-c2cn3c([n+]2-c2ccccc2)SCC3)cc1	0.678
CCOC(=O)C1=C(C)NC2=C(C(=O)CC(c3ccc(OC)c(OC)c3)C2)C1c1ccccc1Br (stereo not given)	0.517
FC(F)(F)c1cccc(C=NNc2nc3ccccc3[nH]2)c1	0.984
Cc1ccc(Nc2nc(NN=Cc3ccc(-c4ccc([N+](=O)[O-])cc4)o3)nc(N3CCOCC3)n2)cc1Cl	0.427
O=C(O)c1c(F)cccc1Cl	0.817
CCC1CCCCN1S(=O)(=O)c1cc(Br)cc2c1N(C(=O)C1CC1)CC2 (stereo not given)	0.831
Fc1ccccc1CCNc1ncnc2c1[nH]c1ccccc12	0.641
COc1ccc(-c2c(C(F)(F)F)nn(C)c2NC(=O)Nc2ccc(F)cc2F)cc1	0.747
CCCOC(=O)C1=C(C)NC2=C(C(=O)CC(c3ccc(OC)c(OC)c3)C2)C1c1ccc(Cl)c(Cl)c1 (stereo not given)	1.2
Cc1ccc(Cn2c(N3CCC(C(=O)NCc4cccs4)CC3)nc3ccccc32)cc1	0.671
Cc1cccc(NC(=O)/C(C#N)=C/c2ccc(C)o2)c1	0.83
CCC(COC)NC(=O)c1cn(C2CCCCC2)cc(C(=O)NC(C)(C)C)c1=O (stereo not given)	0.856
COc1ccc(Cl)cc1NC(=S)NNC(=O)c1cccnc1	0.875
CC(=O)N1c2ccc([N+](=O)[O-])cc2C(C)(c2ccccc2)CC1(C)C (stereo not given)	0.968
O=C(NCCc1ccccc1)C1CCC(Cn2c(=S)[nH]c3ccccc3c2=O)CC1 (stereo not given)	0.462
O=[N+]([O-])c1ccc(C=NN2CCN(Cc3ccccc3Cl)CC2)cc1	0.986

Compound	viability index
Cc1ccc(OCC(=O)Nc2cccc(-c3nc4ncccc4o3)c2)cc1C	0.606
Cc1cc(N2CCCC2)nc2ccc(NC(=S)NCCN3CCc4ccccc4C3)cc12	1.15
CCCCc1c(C)nc2c(OC)cccc2c1O	0.663
CC1CCc2c(sc(NC(=O)c3ccccc3F)c2C(=O)NCc2ccccc2)C1 (stereo not given)	1.42
Oc1cccc(Nc2nc(NCc3ccco3)c3ccccc3n2)c1	0.595
O=[N+]([O-])c1ccc(-n2ncc(-c3nc(-c4ccc(Cl)cc4)no3)c2C(F)(F)F)cc1	0.817
CCOC(=O)C1=C(C(=O)OCC)SC(=C2C(=S)C(C)(C)N(C(=O)c3cccc(F)c3)c3cc(C)ccc32)S1	0.71
COc1ccc(OC(C)=O)c(C=NNC(=O)C(C)Oc2ccccc2Br)c1 (stereo not given)	1.22
COc1cccc(NC(=O)c2ccc3oc(=O)c(S(=O)(=O)c4ccccc4)cc3c2)c1	1.02
OCc1nc2ccccc2n1CCOc1ccccc1	1.04
CCN(CC)c1ccc(NC(=O)C2Cc3ccccc3CN2S(=O)(=O)c2ccc(F)cc2)cc1 (stereo not given)	1.1
C=CCN1CCN(C(c2ccccc2F)c2nnnn2Cc2ccco2)CC1 (stereo not given)	0.928
CC(C)Sc1nc2c(c(=O)n1Cc1ccco1)C1(CCCCC1)Cc1ccccc1-2	1.18
Cc1ccc(C[n+]2cc(-c3ccc(F)cc3)n3c2CCC3)cc1	1.15
Cc1ccnc(NC(c2ccc(Cl)cc2Cl)c2ccc3cccnc3c2O)c1 (stereo not given)	0.707
CCOC(=O)c1cnc2ccc(CC)cc2c1O	0.713
COc1ccc(C(=O)ON=C(N)Cc2ccc(Cl)cc2Cl)cc1[N+](=O)[O-]	0.846
CCN1CCN(C(=O)CS(=O)(=O)Cc2nc(-c3cccc(OC)c3)oc2C)CC1	0.912
O=C(NNc1nc2ccccc2nc1Cl)Nc1ccc(Cl)cc1	0.847
N#Cc1c(NC(=O)CCl)c(C(=O)c2ccccc2)n2c1CCC2	0.78
COc1cccc(-c2ccc(O)c(CNC3CCN(Cc4ccccc4)CC3)c2)n1	0.721
Oc1ccc(-c2ccc3c(c2)OCO3)cc1CNCC1CC2C=CC1C21CC1 (stereo not given)	0.712
COC(=O)c1ccc(C(=O)Nc2ccc(-c3nc4cc(NC(=O)c5ccc(C(=O)OC)cc5)ccc4[nH]3)cc2)cc1	0.946

Compound	viability index
Cc1cc(C)n2nc(-c3ccc(Cl)cc3)cc2n1	0.672
N=c1c2ccccc2nnn1-c1ccc(C(F)(F)F)cc1	0.742
COc1c2occc2c(OC)c2c(=O)cc(C(Cl)(Cl)Cl)oc12	0.751
CCOC(=O)c1c(CSc2ccccc2)oc2cc(CN(C)C)c(O)c(Cl)c12	0.293
O=C(CN1CCN(C(=O)c2ccccc2)CC1)Nc1ccc(-c2nc3cc(NC(=O)CN4CCN(C(=O)c5ccccc5)CC4)ccc3o2)cc1	0.951
O=[N+]([O-])c1cccc(CNc2ccc(F)c(Cl)c2)c1	1.13
C=CC[n+]1c(C=C2C=CC=CN2C)sc2ccccc21	0.938
COc1ccc(CC(=O)Nc2sc3c(c2C(=O)Nc2cccc4ccccc24)CCCC3)cc1	0.77
Cc1cc(Nc2cccc(C(F)(F)F)c2)nc(NCc2ccccc2)n1	0.69
OC(COc1ccc(OCC(O)CN2CCN(C3c4ccccc4-c4ccccc43)CC2)cc1)CN1CCN(C2c3ccccc3-c3ccccc32)CC1 (stereo not given)	0.754
C=CC[n+]1cccc2c3ccccc3ccc21	0.706
CCOc1ccc2nc(C)cc(Nc3cccc(O)c3)c2c1	0.923
COc1ccc(-c2c[n+](CC(=O)O[C@H]3C[C@H](C)CC[C@@H]3C(C)C)c3n2CCCCC3)cc1	1.03
CCn1c2ccccc2[n+]2c(C)cc(C)nc12	0.848
C(=Nc1cnc2ccccc2c1)c1c2n(c3ccccc13)CCCN2	0.615
COC(=O)c1c(NC(=O)c2c(-c3ccccc3)noc2C)sc2c1CCC2	0.792
CC(=O)N1CCc2cc(Br)cc(S(=O)(=O)N3CCCC(C)C3)c21 (stereo not given)	0.835
CC(=O)NCCc1nc2ccccc2n1Cc1ccc(C(C)C)cc1	1.02
CCOc1ccccc1-n1c(SCC(=O)c2ccc(Cl)cc2)nc2[nH]ncc2c1=O	0.905
c1ccc(CNc2nc(-c3ccccn3)nnc2-c2ccccc2)cc1	0.374
CCN(c1ccccc1)S(=O)(=O)c1ccc(F)c(C(=O)Nc2c(C)cccc2C)c1	1.34
